{
  "source": "the supplement of paper PMC8728848",
  "assay_in_all_cases": "glycan array binding signal (z-score within array); higher = stronger binding",
  "conditions_in_all_cases": "glycan notation: IUPAC condensed, linker removed",
  "key": {"[1]": {"molecular_target": "Man(a1-2)Man(a1-3)[Man(a1-2)Man(a1-6)]Man(a1-6)[Man(a1-2)Man(a1-2)Man(a1-3)]Man", "summary_of_the_method": "(§1)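 The binding signal is a Z-score computed within each array. Data were drawn from 3228 arrays in the Consortium for Functional Glycomics database, restricted to those with a known protein sequence. Scores were averaged over arrays of the same protein sequence at different concentrations or buffers, and over linkers, and negative values can be taken as non-binding.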"}, "[2]": {"molecular_target": "Man(a1-2)Man(a1-3)[Man(a1-2)Man(a1-6)]Man(a1-6)[Man(a1-2)Man(a1-2)Man(a1-3)]Man(b1-4)GlcNAc(b1-4)GlcNAc", "summary_of_the_method": "as §1"}, "[3]": {"molecular_target": "Man(a1-2)Man(a1-3)[Man(a1-6)]Man(a1-6)[Man(a1-2)Man(a1-3)]Man(b1-4)GlcNAc(b1-4)GlcNAc", "summary_of_the_method": "as §1"}, "[4]": {"molecular_target": "Man(a1-2)Man(a1-6)[Man(a1-3)]Man(a1-6)[Man(a1-2)Man(a1-2)Man(a1-3)]Man", "summary_of_the_method": "as §1"}, "[5]": {"molecular_target": "Man(a1-2)Man(a1-6)[Man(a1-3)]Man(a1-6)[Man(a1-2)Man(a1-2)Man(a1-3)]Man(b1-4)GlcNAc(b1-4)GlcNAc", "summary_of_the_method": "as §1"}, "Man(a1-3)[Man(a1-6)]Man": {"molecular_target": "Man(a1-3)[Man(a1-6)]Man", "summary_of_the_method": "as §1"}, "[6]": {"molecular_target": "Man(a1-3)[Man(a1-6)]Man(a1-6)[Man(a1-2)Man(a1-3)]Man(b1-4)GlcNAc(b1-4)GlcNAc", "summary_of_the_method": "as §1"}, "[7]": {"molecular_target": "Man(a1-3)[Man(a1-6)]Man(a1-6)[Man(a1-3)]Man", "summary_of_the_method": "as §1"}, "[8]": {"molecular_target": "Man(a1-3)[Man(a1-6)]Man(a1-6)[Man(a1-3)]Man(b1-4)GlcNAc(b1-4)GlcNAc", "summary_of_the_method": "as §1"}, "[9]": {"molecular_target": "Man(a1-3)[Man(a1-6)]Man(b1-4)GlcNAc(b1-4)GlcNAc", "summary_of_the_method": "as §1"}, "[10]": {"molecular_target": "Man(a1-3)[Man(a1-6)]Man(b1-4)GlcNAc(b1-4)[Fuc(a1-6)]GlcNAc", "summary_of_the_method": "as §1"}, "Man(a1-6)Man": {"molecular_target": "Man(a1-6)Man", "summary_of_the_method": "as §1"}, "Man(b1-4)GlcNAc": {"molecular_target": "Man(b1-4)GlcNAc", "summary_of_the_method": "as §1"}, "MurNAc(b1-4)GlcNAc": {"molecular_target": "MurNAc(b1-4)GlcNAc", "summary_of_the_method": "as §1"}, "Neu5Ac(a2-3)Gal": {"molecular_target": "Neu5Ac(a2-3)Gal", "summary_of_the_method": "as §1"}, "[11]": {"molecular_target": "Neu5Ac(a2-3)Gal(b1-3)GalNAc", "summary_of_the_method": "as §1"}, "[12]": {"molecular_target": "Neu5Ac(a2-3)Gal(b1-3)GalNAc(b1-3)Gal(a1-4)Gal(b1-4)Glc", "summary_of_the_method": "as §1"}, "[13]": {"molecular_target": "Neu5Ac(a2-3)Gal(b1-3)GalNAc(b1-4)Gal(b1-4)Glc", "summary_of_the_method": "as §1"}, "[14]": {"molecular_target": "Neu5Ac(a2-3)Gal(b1-3)GalNAc(b1-4)[Neu5Ac(a2-3)]Gal(b1-4)Glc", "summary_of_the_method": "as §1"}, "[15]": {"molecular_target": "Neu5Ac(a2-3)Gal(b1-3)GalNAc(b1-4)[Neu5Ac(a2-8)Neu5Ac(a2-3)]Gal(b1-4)Glc", "summary_of_the_method": "as §1"}, "[16]": {"molecular_target": "Neu5Ac(a2-3)Gal(b1-3)GalNAc6S", "summary_of_the_method": "as §1"}, "[17]": {"molecular_target": "Neu5Ac(a2-3)Gal(b1-3)GlcNAc", "summary_of_the_method": "as §1"}, "[18]": {"molecular_target": "Neu5Ac(a2-3)Gal(b1-3)GlcNAc(b1-2)Man", "summary_of_the_method": "as §1"}, "[19]": {"molecular_target": "Neu5Ac(a2-3)Gal(b1-3)GlcNAc(b1-2)Man(a1-3)[GlcNAc(b1-4)][Neu5Ac(a2-3)Gal(b1-3)GlcNAc(b1-2)Man(a1-6)]Man(b1-4)GlcNAc(b1-4)GlcNAc", "summary_of_the_method": "as §1"}, "[20]": {"molecular_target": "Neu5Ac(a2-3)Gal(b1-3)GlcNAc(b1-2)Man(a1-3)[Neu5Ac(a2-3)Gal(b1-3)GlcNAc(b1-2)Man(a1-6)]Man(b1-4)GlcNAc(b1-4)GlcNAc", "summary_of_the_method": "as §1"}, "[21]": {"molecular_target": "Neu5Ac(a2-3)Gal(b1-3)GlcNAc(b1-2)[Neu5Ac(a2-3)Gal(b1-3)GlcNAc(b1-4)]Man(a1-6)[Neu5Ac(a2-3)Gal(b1-3)GlcNAc(b1-2)Man(a1-3)]Man(b1-4)GlcNAc(b1-4)GlcNAc", "summary_of_the_method": "as §1"}, "[22]": {"molecular_target": "Neu5Ac(a2-3)Gal(b1-3)GlcNAc(b1-3)Gal(b1-3)GlcNAc", "summary_of_the_method": "as §1"}, "[23]": {"molecular_target": "Neu5Ac(a2-3)Gal(b1-3)GlcNAc(b1-3)Gal(b1-4)GlcNAc", "summary_of_the_method": "as §1"}, "[24]": {"molecular_target": "Neu5Ac(a2-3)Gal(b1-3)GlcNAc(b1-3)GalNAc", "summary_of_the_method": "as §1"}, "[25]": {"molecular_target": "Neu5Ac(a2-3)Gal(b1-3)GlcNAc(b1-6)GalNAc", "summary_of_the_method": "as §1"}},
  "note": "This is one part of the list.",
  "data": [
    {"binder": "BT3172pd (Bacteroides thetaiotaomicron) (protein) MLPLRAEHYYYKQISLKEGLPSNVRCILRDEQGFIWIGTKAGLGKFDGHQLKRYKHQANDPHSLLHNLIYQIAEDKQHNIWILTEKGIARYQQQSNNFTFPTDEEGNYITAYSFCLVPDGILFGGKDRIYKYSYKDSSLRLLQYFNANSFKITALSVWDSKTLLCCSRWTGLYLVDLQTGEHRRPPFDCGPEITSMITDSKNRIWIAPYSGGLRCYSRDGKLSASYTTHNSSLSNDIVLSLAEREEQLWIGTDGGGINILHPETGEISQLEYIPGRENYSLPANSILCLHNDYNNNVWAGSTCNGLISIREVSMKTYTDVVPGNDRGLSNGTVRSLYRQSPDSIWIGTDGGGINLFSPHTEKFTHYSSTWGDKVAFISGFTPGKLLISLFSKGVFVFNPATGEKQPFTIIDKETTTRLCNRGKSVNLYQNTPNTVLFLGDHIYQYHLKEKKFSTITEEEGKDIVGTLVPFDHQENLTYINDIKHIYELDDQTSRLKTVFECYTDTVISSVSHDEQGHFWIGSNFGLIHYDPVLKSRTLVPTNLFTEINMVLCDQKGKVWIGVDNMLFAYFIKEQKFVLFGESNGAIQNEYLPNARLVNEQGDAYIGGVKGMLRIDGQLLLNTSEMPELQLLDITINGESANHEWYNHPAKISVPWNSNISIRIMSREEDIFRQKIYRYQIEGLNNEYTESYNPELVIRSLLPGSYRIMASCTAKDGSWIPDQQVLELTVLPPWYRTHHHHHH", "values": [
      {"measurement": "glycan array binding signal (z-score)", "setting": "[1]", "value": -0.496},
      {"measurement": "glycan array binding signal (z-score)", "setting": "[2]", "value": -0.195},
      {"measurement": "glycan array binding signal (z-score)", "setting": "[3]", "value": -1.07},
      {"measurement": "glycan array binding signal (z-score)", "setting": "[4]", "value": 0.078},
      {"measurement": "glycan array binding signal (z-score)", "setting": "[5]", "value": -0.066},
      {"measurement": "glycan array binding signal (z-score)", "setting": "Man(a1-3)[Man(a1-6)]Man", "value": -0.387},
      {"measurement": "glycan array binding signal (z-score)", "setting": "[6]", "value": 0.16},
      {"measurement": "glycan array binding signal (z-score)", "setting": "[7]", "value": 0.353},
      {"measurement": "glycan array binding signal (z-score)", "setting": "[8]", "value": -0.324},
      {"measurement": "glycan array binding signal (z-score)", "setting": "[9]", "value": 0.075},
      {"measurement": "glycan array binding signal (z-score)", "setting": "[10]", "value": -0.64},
      {"measurement": "glycan array binding signal (z-score)", "setting": "Man(a1-6)Man", "value": 0.825},
      {"measurement": "glycan array binding signal (z-score)", "setting": "Man(b1-4)GlcNAc", "value": 0.222},
      {"measurement": "glycan array binding signal (z-score)", "setting": "MurNAc(b1-4)GlcNAc", "value": -0.144},
      {"measurement": "glycan array binding signal (z-score)", "setting": "Neu5Ac(a2-3)Gal", "value": 0.021},
      {"measurement": "glycan array binding signal (z-score)", "setting": "[11]", "value": -0.736},
      {"measurement": "glycan array binding signal (z-score)", "setting": "[12]", "value": -0.2},
      {"measurement": "glycan array binding signal (z-score)", "setting": "[13]", "value": 0.006},
      {"measurement": "glycan array binding signal (z-score)", "setting": "[14]", "value": -0.617},
      {"measurement": "glycan array binding signal (z-score)", "setting": "[15]", "value": 0.267},
      {"measurement": "glycan array binding signal (z-score)", "setting": "[16]", "value": -0.37},
      {"measurement": "glycan array binding signal (z-score)", "setting": "[17]", "value": 0.443},
      {"measurement": "glycan array binding signal (z-score)", "setting": "[18]", "value": 1.2},
      {"measurement": "glycan array binding signal (z-score)", "setting": "[19]", "value": -0.661},
      {"measurement": "glycan array binding signal (z-score)", "setting": "[20]", "value": 0.494},
      {"measurement": "glycan array binding signal (z-score)", "setting": "[21]", "value": 0.516},
      {"measurement": "glycan array binding signal (z-score)", "setting": "[22]", "value": -0.376},
      {"measurement": "glycan array binding signal (z-score)", "setting": "[23]", "value": -0.449},
      {"measurement": "glycan array binding signal (z-score)", "setting": "[24]", "value": 0.141},
      {"measurement": "glycan array binding signal (z-score)", "setting": "[25]", "value": 0.523}
    ]}
  ]
}
